# Data published in the supplement of paper PMC8728848.
# Some of the results follow.
# B1: CVN-E41G (protein)
# chain: MHHHHHHENLYFQSGNFSQACYNSAIQGSVLTSTCIRTNGGYNTSSIDLNSVIGNVDGSLKWQGSNFIETCRNTQLAGSSELAAECKTRAQQFVSTKINLDDHIAAIDGTLKYE
# Tests used:
# Experiment in all cases: glycan array binding signal (z-score within array); higher = stronger binding
# Settings in all cases: glycan notation: IUPAC condensed, linker removed; mutation: E41G
# Gal6S(b1-4)Glc = biological target: Gal6S(b1-4)Glc
# Summary of the method: (§1)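 Glycan array data came from 3228 arrays in the Consortium for Functional Glycomics database, and only arrays with an available protein sequence were kept. Glycan names were put into IUPAC-condensed notation, and columns mapping to the same glycan were averaged. The binding signal is a within-array Z-score, averaged across arrays of one protein sequence run at different concentrations or buffers and across linkers. A negative Z-score can be read as non-binding.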
# Gal6S(b1-4)Glc6S = biological target: Gal6S(b1-4)Glc6S
# Summary of the method: as §1
# Gal6S(b1-4)GlcNAc = biological target: Gal6S(b1-4)GlcNAc
# Summary of the method: as §1
# Gal6S(b1-4)GlcNAc6S = biological target: Gal6S(b1-4)GlcNAc6S
# Summary of the method: as §1
# GalNAc(a1-3)Gal = biological target: GalNAc(a1-3)Gal
# Summary of the method: as §1
# GalNAc(a1-3)GalNAc = biological target: GalNAc(a1-3)GalNAc
# Summary of the method: as §1
# [1] = biological target: GalNAc(a1-3)GalNAc(b1-3)Gal(a1-4)Gal(b1-4)Glc
# Summary of the method: as §1
# [2] = biological target: GalNAc(a1-3)GalNAc(b1-3)Gal(a1-4)Gal(b1-4)GlcNAc
# Summary of the method: as §1
# GalNAc(b1-3)Gal = biological target: GalNAc(b1-3)Gal
# Summary of the method: as §1
# [3] = biological target: GalNAc(b1-3)Gal(a1-4)Gal(b1-4)GlcNAc
# Summary of the method: as §1
# [4] = biological target: GalNAc(b1-3)Gal(a1-4)Gal(b1-4)GlcNAc(b1-3)Gal(b1-4)Glc
# Summary of the method: as §1
# [5] = biological target: GalNAc(b1-3)Gal(a1-6)Gal(b1-4)Glc
# Summary of the method: as §1
# GalNAc(b1-3)GalNAc = biological target: GalNAc(b1-3)GalNAc
# Summary of the method: as §1
# GalNAc(b1-3)GlcNAc = biological target: GalNAc(b1-3)GlcNAc
# Summary of the method: as §1
# GalNAc(b1-4)Gal(b1-4)Glc = biological target: GalNAc(b1-4)Gal(b1-4)Glc
# Summary of the method: as §1
# GalNAc(b1-4)GlcNAc = biological target: GalNAc(b1-4)GlcNAc
# Summary of the method: as §1
# [6] = biological target: GalNAc(b1-4)GlcNAc(b1-2)Man
# Summary of the method: as §1
# [7] = biological target: GalNAc(b1-4)GlcNAc(b1-2)Man(a1-3)[GalNAc(b1-4)GlcNAc(b1-2)Man(a1-6)]Man(b1-4)GlcNAc(b1-4)GlcNAc
# Summary of the method: as §1
# [8] = biological target: GalNAc(b1-4)GlcNAc(b1-3)GalNAc(b1-4)GlcNAc
# Summary of the method: as §1
# GalNAc(b1-4)GlcNAc6S = biological target: GalNAc(b1-4)GlcNAc6S
# Summary of the method: as §1
# GalNAc(b1-6)GalNAc = biological target: GalNAc(b1-6)GalNAc
# Summary of the method: as §1
# GalNAc3S(b1-4)GlcNAc = biological target: GalNAc3S(b1-4)GlcNAc
# Summary of the method: as §1
# GalNAc3S(b1-4)GlcNAc3S = biological target: GalNAc3S(b1-4)GlcNAc3S
# Summary of the method: as §1
# [9] = biological target: GalNAc3S(b1-4)[Fuc(a1-3)]GlcNAc
# Summary of the method: as §1
# GalNAc4S6S(b1-4)GlcNAc = biological target: GalNAc4S6S(b1-4)GlcNAc
# Summary of the method: as §1
# GalNAc6S(b1-4)GlcNAc = biological target: GalNAc6S(b1-4)GlcNAc
# Summary of the method: as §1
# Glc(a1-4)Glc = biological target: Glc(a1-4)Glc
# Summary of the method: as §1
# [10] = biological target: Glc(a1-4)Glc(a1-4)Glc(a1-4)Glc
# Summary of the method: as §1
# Glc(a1-6)Glc(a1-6)Glc = biological target: Glc(a1-6)Glc(a1-6)Glc
# Summary of the method: as §1
# [11] = biological target: Glc(a1-6)Glc(a1-6)Glc(a1-6)Glc
# Summary of the method: as §1
# Glc(b1-4)Glc = biological target: Glc(b1-4)Glc
# Summary of the method: as §1
# Glc(b1-6)Glc = biological target: Glc(b1-6)Glc
# Summary of the method: as §1
# GlcA(b1-3)Gal = biological target: GlcA(b1-3)Gal
# Summary of the method: as §1
# GlcA(b1-3)GlcNAc = biological target: GlcA(b1-3)GlcNAc
# Summary of the method: as §1
# GlcA(b1-6)Gal = biological target: GlcA(b1-6)Gal
# Summary of the method: as §1
# [12] = biological target: GlcA3S(b1-3)Gal(b1-4)GlcNAc(b1-2)Man
# Summary of the method: as §1
# [13] = biological target: GlcA3S(b1-3)Gal(b1-4)GlcNAc(b1-3)Gal(b1-4)Glc
# Summary of the method: as §1
# [14] = biological target: GlcNAc(a1-3)Gal(b1-4)GlcNAc
# Summary of the method: as §1
# [15] = biological target: GlcNAc(a1-4)Gal(b1-3)GlcNAc
# Summary of the method: as §1
# [16] = biological target: GlcNAc(a1-4)Gal(b1-4)GalNAc
# Summary of the method: as §1
# [17] = biological target: GlcNAc(a1-4)Gal(b1-4)GlcNAc
# Summary of the method: as §1
# [18] = biological target: GlcNAc(a1-4)Gal(b1-4)GlcNAc(b1-3)Gal(b1-4)Glc
# Summary of the method: as §1
# [19] = biological target: GlcNAc(a1-4)Gal(b1-4)GlcNAc(b1-3)Gal(b1-4)GlcNAc
# Summary of the method: as §1
# [20] = biological target: GlcNAc(a1-4)Gal(b1-4)GlcNAc(b1-3)Gal(b1-4)GlcNAc(b1-3)Gal(b1-4)GlcNAc
# Summary of the method: as §1
# [21] = biological target: GlcNAc(a1-4)Gal(b1-4)GlcNAc(b1-3)Gal(b1-4)[Fuc(a1-3)]GlcNAc(b1-3)Gal(b1-4)[Fuc(a1-3)]GlcNAc
# Summary of the method: as §1
binder,measurement,setting,value
B1,glycan array binding signal (z-score),Gal6S(b1-4)Glc,-0.138
same,glycan array binding signal (z-score),Gal6S(b1-4)Glc6S,-0.159
same,glycan array binding signal (z-score),Gal6S(b1-4)GlcNAc,-0.174
same,glycan array binding signal (z-score),Gal6S(b1-4)GlcNAc6S,-0.17
same,glycan array binding signal (z-score),GalNAc(a1-3)Gal,-0.175
same,glycan array binding signal (z-score),GalNAc(a1-3)GalNAc,-0.096
same,glycan array binding signal (z-score),[1],-0.179
same,glycan array binding signal (z-score),[2],-0.174
same,glycan array binding signal (z-score),GalNAc(b1-3)Gal,-0.133
same,glycan array binding signal (z-score),[3],-0.154
same,glycan array binding signal (z-score),[4],-0.163
same,glycan array binding signal (z-score),[5],-0.158
same,glycan array binding signal (z-score),GalNAc(b1-3)GalNAc,-0.176
same,glycan array binding signal (z-score),GalNAc(b1-3)GlcNAc,-0.108
same,glycan array binding signal (z-score),GalNAc(b1-4)Gal(b1-4)Glc,0.127
same,glycan array binding signal (z-score),GalNAc(b1-4)GlcNAc,-0.135
same,glycan array binding signal (z-score),[6],-0.154
same,glycan array binding signal (z-score),[7],-0.056
same,glycan array binding signal (z-score),[8],-0.112
same,glycan array binding signal (z-score),GalNAc(b1-4)GlcNAc6S,-0.143
same,glycan array binding signal (z-score),GalNAc(b1-6)GalNAc,-0.169
same,glycan array binding signal (z-score),GalNAc3S(b1-4)GlcNAc,-0.172
same,glycan array binding signal (z-score),GalNAc3S(b1-4)GlcNAc3S,-0.176
same,glycan array binding signal (z-score),[9],-0.15
same,glycan array binding signal (z-score),GalNAc4S6S(b1-4)GlcNAc,-0.186
same,glycan array binding signal (z-score),GalNAc6S(b1-4)GlcNAc,-0.186
same,glycan array binding signal (z-score),Glc(a1-4)Glc,-0.139
same,glycan array binding signal (z-score),[10],-0.138
same,glycan array binding signal (z-score),Glc(a1-6)Glc(a1-6)Glc,-0.062
same,glycan array binding signal (z-score),[11],-0.029
same,glycan array binding signal (z-score),Glc(b1-4)Glc,-0.079
same,glycan array binding signal (z-score),Glc(b1-6)Glc,-0.107
same,glycan array binding signal (z-score),GlcA(b1-3)Gal,-0.158
same,glycan array binding signal (z-score),GlcA(b1-3)GlcNAc,-0.162
same,glycan array binding signal (z-score),GlcA(b1-6)Gal,-0.134
same,glycan array binding signal (z-score),[12],-0.137
same,glycan array binding signal (z-score),[13],-0.171
same,glycan array binding signal (z-score),[14],-0.155
same,glycan array binding signal (z-score),[15],-0.187
same,glycan array binding signal (z-score),[16],-0.158
same,glycan array binding signal (z-score),[17],-0.192
same,glycan array binding signal (z-score),[18],-0.169
same,glycan array binding signal (z-score),[19],-0.156
same,glycan array binding signal (z-score),[20],-0.178
same,glycan array binding signal (z-score),[21],-0.111
